The source gives no read counts; variants with many changes may rest on few reads.
B1: LINE1-mini (parent)
chain: GGCAGAGCUCAACACAGCGUGGCAAAGUGGCUGUGGCUAGACUGCC

Variants of: B1
Test: self-cleavage, relative activity (ratio to wild type); higher = more cleavage; in vitro, sequencing; the parent is a self-cleaving ribozyme

Row | Variant | self-cleavage
1 | GGCGGAGCUCAACACAGCGUGGCGUAGUGGCUGUGGCUAGACUGCC [A4G A24G A25U] | 0.52
2 | GGCAGAGCUCAACACAGCGUGGCAAAGUGGCCUUGGCCAGACUGCC [U32C G33U U38C] | 0.04
3 | GGCAGAGCUCAAUCCAGGGUGGCAAAGUGGCUGUGGCUAGACUGCU [C13U A14C C18G C46U] | 0.03
4 | GACAGAGCUCAACAAAGCGUGGCAAAGUAGCUGUGGCUAGACUGCC [G2A C15A G29A] | 0.37
5 | GGCAGAGCCAAUCACAGCGUGGCAAAGUGGCUGUGGCUAGACUGCC [U9C C10A A12U] | 0.02
6 | GGCCGAGUUCAACAUAGCGUGGCAAAGUGGCUUUGGAUAGACUGCC [A4C C8U C15U G33U C37A] | 0.1
7 | GGAAGAGCGCAACCCAGCGUGGCAAAGUGGCUGUGGCUAGACUGCC [C3A U9G A14C] | 0.41
8 | AGCCGAGCUCAACACAGCGUUGCAAAGUGGCUGUGGCUAUACUGCC [G1A A4C G21U G40U] | 0.18
9 | GGCAUAGCUCAACACAGCGUCGCAAAGUGGCUGUUGCUAGACUGCC [G5U G21C G35U] | 0.05
10 | GCCAGAGCUCAACACAGCGUGGCCAAGUGGCUAUGGCUUGACUGCC [G2C A24C G33A A39U] | 0
11 | GUCAGAGUUCAAAACAGCAUGGCAAAGUGGAUGUGGCUCGACUGCC [G2U C8U C13A G19A C31A A39C] | 0.02
12 | GGCAGAGCUGCACACAGCUUGGUAAAGUCGCUGGGGCUAGACUGCC [C10G A11C G19U C23U G29C U34G] | 0.01
13 | GGCAGAGCUCAAGACAGCGUGGCAGAGUGGCAGUGGCUAGACUGCC [C13G A25G U32A] | 0.23
14 | GGCAGAGCUCCACACUGUGUUGCAAAGUAGCUGUGGCUAGACUGCC [A11C A16U C18U G21U G29A] | 0.02
15 | GGCAGAGCUCAUCACAGAGUGGCAAAGGGGCUGUGGCUAGACUGCC [A12U C18A U28G] | 0.03
16 | UGCAGAGCUCAACACAGCGUGGCAAAUUGGCUGUGGCUAAACUGCC [G1U G27U G40A] | 0.11
17 | GGCAGAGCUCAACACACCAUGGCAAAGUGGCUGUGGAUAGUCUGCC [G17C G19A C37A A41U] | 0.02
18 | GGCAGAGCUCUACACAGCUUGGAAAAGUGGCUGUGGCUAGACUGCC [A11U G19U C23A] | 0.05
19 | GGCUGAGCUCAACAUAGCGGGGCAAAGUGGCUGUGAUUAGACUGCC [A4U C15U U20G G36A C37U] | 0.07

Row | Variant | self-cleavage
20 | GGCAGGGCUCAACACCGCGUGGCAAAGUGGCUGUGGCUAGACUCCC [A6G A16C G44C] | 0.01
21 | GGCAGCGCUAAACACAGCGUGGCAAAGUGGCUGUGGCGAGACUGCU [A6C C10A U38G C46U] | 0.01
22 | GGCAGAGCGCAACAGAGCGUGGCAAAAUGGCUGUGUCUAGACUGCC [U9G C15G G27A G36U] | 0.03
23 | GGCAGAGCCCAACACAACGUGGCAAAGUGGCUGUGGCUAAACAGCC [U9C G17A G40A U43A] | 0.01
24 | GGCAGAGCUCAAACCAGCGUGGCAAAGCGGCUGUGGCUAGAUUGCC [C13A A14C U28C C42U] | 0.1
25 | AGCAGAGCUCAACACAGCGUGGCAAAGUGGCUGUGUCUAGCCUGCC [G1A G36U A41C] | 0.06
26 | GGCAGAGCUUAACACAGCGUGGCAAAAUGGCUGUGGCUAAACUGCA [C10U G27A G40A C46A] | 0.01
27 | GGCAGAACUCAACACAGCUUGGCAAAGUGGCGGUGGCUAGACUGCC [G7A G19U U32G] | 0.08
28 | GGCAGAGCUCAAGACAGCGUUGCAAAGUGGCUGGGGCUAGACUGCC [C13G G21U U34G] | 0.03
29 | GGCAGGGCUCAAUACAGCAUGGCAAAGUGGCUGUGGCUAGACUGCC [A6G C13U G19A] | 0.08
30 | GUCAAAGCUCAACACCGCGUGGCAAAGUGGCUGUGGCUAGACUGCC [G2U G5A A16C] | 0.01
31 | GGCAAAGCUCAACGCAGCGUGGCAAAGUGGCUGUGUCUAGUCUGCC [G5A A14G G36U A41U] | 0.11
32 | GGCAGAGCUCACCACAGCGUGGCAAAGUGGCUGUGGCUAAUCUACC [A12C G40A A41U G44A] | 0.01
33 | GGCAGAGCUCAACACAGCGUGGCAAAUUGGCUGUAGCUACACUGCC [G27U G35A G40C] | 0.06
34 | GGAACAGCGCAACACCGCGUGGCAAAGUGGCUGUGGCUAGACUGCC [C3A G5C U9G A16C] | 0.09
35 | GGCAUAGCGCAACAUAGCGUUGCAAAGUGGCUGUGGCUAGACUGCC [G5U U9G C15U G21U] | 0.01
36 | GGCAGAGCUCAACCCAGCGGGGCAAAGUGGCUGUGGCUAGACUACC [A14C U20G G44A] | 0.06
37 | GGCAGAGCACAACUCAGCGUGGCAAAGUGGCUGUGGCUAAACUGCC [U9A A14U G40A] | 0.12
38 | GGCAGAGCUCAACACAGCGGGCCAAAGUGUCUGUGGCUCGACUGCC [U20G G22C G30U A39C] | 0

Row | Variant | self-cleavage
39 | GACAGAGCUCAACACAGCUAGACAAAGUGGCUGUGGCUAGACUGCC [G2A G19U U20A G22A] | 0.44
40 | GGCAGAGCUCAACACAGAGUGGCAAAGUGGCGGUGGGUAGACUGAC [C18A U32G C37G C45A] | 0.01
41 | GGGAGAGCUCGAGACCGCGAGGCAAAGUUGCUGUGGCUAGACUGCC [C3G A11G C13G A16C U20A G29U] | 0.01
42 | GACAGAUCUCAAUAUAGCGUGGCAAAGUGGCUGUGGCUAGACUGCC [G2A G7U C13U C15U] | 0.53
43 | GGCAGUGCUCAACACAGCGUCGAAAAGUGGCUGUGGCCAGAUUGCC [A6U G21C C23A U38C C42U] | 0.06
44 | GGCAGAGCACAACGCAGCGUGGCAAAGUGUCUGUCGCUAGACUGCC [U9A A14G G30U G35C] | 0.06
45 | AGCUGAGCUCAACACAGCGUGGCGAAGUGGCUGUGGCUAGACUGCC [G1A A4U A24G] | 0.16
46 | GGCAGAGUUCAACACAGCGAGGAAAAGUGGCUGUGGCUAGAUUGCC [C8U U20A C23A C42U] | 0.06
47 | GGCAGAGCUCGACACAGCGUGGCAAAGUGGCUUUGGCUUGACUGCC [A11G G33U A39U] | 0.01
48 | GGCAGAGCACAACACAGCGUGGCAAAGUGGUUGUUGCUAGACUGCC [U9A C31U G35U] | 0
49 | GGCCGAGCUCAACACAGCGUUGCAAGGUGGCUGUGGCUAGACUGCC [A4C G21U A26G] | 0.03
50 | GCCAAGGCUCAACACGGCGUGGCAAAGUGGCUGUUGCUAGACUGCC [G2C G5A A6G A16G G35U] | 0.52
51 | GGCAGAGCUCACCACAGCCUGGCAAAGUCGCUGUGGCUAGACUGCC [A12C G19C G29C] | 0.02
52 | GGCAGAGCUGUACACAGCGUGGAACAGUGGCUGUGGCUAGACUGGC [C10G A11U C23A A25C C45G] | 0.01
53 | GGUAGAGCUCAACUCAGGGUGGCAAAGUGGCUGUGGCUAGAAUGCC [C3U A14U C18G C42A] | 0.08
54 | GGCAGAGCUCACCACAGCGGGGCAAAGUGGCUGUGGAUAGACUUCC [A12C U20G C37A G44U] | 0.01
55 | GGCAGAGCUCAACACAGCGUGGCAAAGUGGCUGUGGUUAGAACGCC [C37U C42A U43C] | 0.06
56 | CGCAGAGCUCAACACAGCGUGGCAUAAUGGAUAUGGCUAGACUGCC [G1C A25U G27A C31A G33A] | 0.03
